In all, about 48,000 compounds went through this assay and about 550 (1.1%) were called active. Inconclusive results (about 4%) are left out. Cut-off read from the data, not from the text of the source: active = potency below about 15 µM; inconclusive = mostly about 16 µM to 33 µM; inactive = weaker than that. The list shows a part of the results.
Potency is the fitted concentration of half-maximal effect.

The target in this assay is Lysosomal acid glucosylceramidase (Homo sapiens) (UniProt P04062). The assay can be described thus: Glucocerebrosidase.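 Note: the screen sought inhibitors.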 Conditions: purified enzyme, resorufin glucoside fluorescence (screen aimed at inhibitors), 20 min; series mostly up to 77 µM. In short, it runs like this: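 Wild-type enzyme at 0.2 nM final in 50mM citric acid/KH2PO4, 10mM sodium taurocholate, 0.01% tween-20, pH 5.9, with resorufin beta-D-glucopyranoside at 30 uM final. Compounds titrated, 20 min at RT, red fluorescence read; AC50 from titration.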
Sequence of UniProt P04062 (P04062 whole entry, looked up): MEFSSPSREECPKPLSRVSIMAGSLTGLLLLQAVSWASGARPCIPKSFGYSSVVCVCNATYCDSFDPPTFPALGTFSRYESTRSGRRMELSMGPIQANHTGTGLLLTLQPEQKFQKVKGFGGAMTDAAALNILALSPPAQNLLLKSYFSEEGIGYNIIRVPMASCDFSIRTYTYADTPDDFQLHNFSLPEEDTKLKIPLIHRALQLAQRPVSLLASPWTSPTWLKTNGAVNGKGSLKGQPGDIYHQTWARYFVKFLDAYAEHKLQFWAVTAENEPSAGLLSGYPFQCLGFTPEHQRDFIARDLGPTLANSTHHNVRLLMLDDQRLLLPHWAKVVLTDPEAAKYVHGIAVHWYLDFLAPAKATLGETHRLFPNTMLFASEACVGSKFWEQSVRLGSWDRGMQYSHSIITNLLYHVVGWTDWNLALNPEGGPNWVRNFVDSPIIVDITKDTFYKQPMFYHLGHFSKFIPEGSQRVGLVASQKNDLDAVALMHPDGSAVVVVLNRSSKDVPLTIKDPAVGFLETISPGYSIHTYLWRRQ
On to `COc1ccc(N2CCN(CC(=O)Nc3nc4c(s3)CC(C)CC4)CC2)cc1` (stereo not drawn), for which the Potency was inactive: > 76.9 µM.

For the compound `Cc1cc(=O)n2nc(N3CCC(C(=O)NCCc4ccccc4)CC3)sc2n1`, the Potency was inactive: > 76.9 µM.

Take `CCOC(=O)c1cc2c(=O)n3ccccc3nc2n(Cc2ccccc2)c1=N`: the Potency was inactive: > 76.9 µM.

Regarding `COc1cc(C2CC(=O)c3cnc(N4CCN(Cc5ccccc5)CC4)nc3C2)cc(OC)c1OC` (stereo not drawn), the Potency was inactive: > 76.9 µM.

In the case of `COC(=O)c1cc(-c2c(C)oc3cc(O)ccc3c2=O)c(C)o1`, the Potency was inactive: > 76.9 µM.

In the case of `CCOC(=O)N1CCN(C(=O)CCc2c(C)nc3c(c(C)nn3-c3ccc(C)c(C)c3)c2C)CC1`, the Potency was inactive: > 76.9 µM.

Take `O=C(O)C1C2C=CC3(CN(Cc4ccccn4)C(=O)C13)O2` (stereo not drawn): the Potency is inactive: > 76.9 µM.

Turning to `CCOC(=O)CCn1nnc(N)n1`, the Potency result is “inactive”.

Turning to `COc1ccc(C2C(C(=O)OCC(=O)N3CCCCC3)CCC(=O)N2c2ccc(OC)cc2)cc1` (stereo not drawn), the Potency was inactive: > 76.9 µM.

In the case of `COC(=O)C1CCN(C(=O)NC2CCCCC2)CC1`, the Potency was inactive: > 76.9 µM.

Turning to `O=C(CSc1nc2c(c(=O)n1-c1ccc(Br)cc1)SCC2)NCC1CCCO1` (stereo not drawn), the Potency is inactive: > 76.9 µM.

As for `CCC(C)c1c(O)nc(SCc2ccccc2)[nH]c1=O` (stereo not drawn), the Potency was inactive: > 76.9 µM.

In the case of `Cc1ccc(N2CC(C(=O)NCc3ccccn3)CC2=O)cc1` (stereo not drawn), the Potency was inactive: > 76.9 µM.

Consider `COc1ccccc1N=c1oc2cc(O)ccc2cc1C(=O)NCC1CCCO1` (stereo not drawn), for which the Potency was inactive: > 76.9 µM.

With `CC1Cc2ccccc2N1C1=NS(=O)(=O)c2ccccc21` (stereo not drawn), the Potency was inactive: > 76.9 µM.

As to `CN(C)CC(=O)N1c2ccccc2CCc2ccc(NC(=O)c3ccc(N)cc3)cc21`, the Potency was inactive: > 76.9 µM.

For the compound `COc1ccc(-c2nnn(CC(=O)Nc3sc4c(c3C#N)CCCC4)n2)cc1`, the Potency is inactive: > 76.9 µM.

As for `C=CCn1c(SCC(=O)C(C)(C)C)nnc1-c1ccccn1`, the Potency was inactive: > 76.9 µM.

Regarding `CC(=O)Nc1ccc(S(=O)(=O)NC2(C(F)(F)F)NC(=O)N(C3CCCC3)C2=O)cc1` (stereo not drawn), the Potency is inactive: > 76.9 µM.

As for `COc1ccc(-c2nnc3ccc(SCC(N)=O)nn23)cc1OC`, the Potency was inactive: > 76.9 µM.

Consider `Cc1nc(NCCCn2ccnc2)c2ccccc2n1`, for which the Potency was inactive: > 76.9 µM.

Regarding `O=P(O)(O)CCP(=O)(c1ccccc1)c1ccccc1`, the Potency was inactive: > 76.9 µM.

`O=S(=O)(NCCc1ccncc1)c1cc(Br)ccc1F`: the Potency was inactive: > 76.9 µM.

Take `Cc1nc(NC(=O)CCC(=O)O)sc1C(=O)N(C)C`: the Potency is inactive: > 76.9 µM.

With `CCS(=O)(=O)NCC(c1cccnc1)N1CCN(c2ccccc2F)CC1` (stereo not drawn), the Potency is inactive: > 76.9 µM.

For the compound `CC1CCN(C(=O)CSc2nc(N)cc(N)n2)CC1`, the Potency was inactive: > 76.9 µM.

With `O=C(CN1CCN(c2ncc(C(F)(F)F)cc2Cl)CC1)NC(=O)NCc1ccccc1`, the Potency is inactive: > 76.9 µM.

As to `O=C(Nc1ccc2ccccc2c1)c1cnccn1`, the Potency was inactive: > 76.9 µM.

For the compound `CCOc1ccccc1OCC(=O)O`, the Potency is inactive: > 76.9 µM.

On to `Cc1ccc(CN2CCN(CC(=O)N3CCc4ccccc4C3)C2=O)cc1`, for which the Potency is inactive: > 76.9 µM.

`CCCCCCC(=O)Nc1ccc(Cl)cn1`: the Potency is inactive: > 76.9 µM.

Turning to `COc1ccc(CN2CCN(C(=O)CN3C(=O)C4C5C=CC(C5)C4C3=O)CC2)c(OC)c1OC` (stereo not drawn), the Potency is inactive: > 76.9 µM.

For `CCOC(=O)c1ccc(COC(=O)c2cc3ccccc3oc2=O)o1`, the Potency is inactive: > 76.9 µM.

With `COC(=O)C1=C(N)Oc2cc(C)n(Cc3ccncc3)c(=O)c2C1c1cccnc1` (stereo not drawn), the Potency was inactive: > 76.9 µM.

`CCN(CC)S(=O)(=O)c1csc(C(=O)Nc2ccccn2)c1`: the Potency is inactive: > 76.9 µM.

Consider `Nc1nc(SCc2ccccc2)ns1`, for which the Potency was inactive: > 76.9 µM.

As to `COC(=O)c1c(C(=O)OC)c2ccncn2c1Cl`, the Potency is inactive: > 76.9 µM.

Regarding `CCc1cc(=O)oc2cc3oc(C)c(C)c3cc12`, the Potency entry is “inactive”.

On to `CC1(C(=O)NC2CCCCCCC2)CCC(=O)N1Cc1cccnc1` (stereo not drawn), for which the Potency is inactive: > 76.9 µM.

For the compound `COc1ccc(OC)c(C2=NOC(C(=O)NCc3ccccn3)C2)c1` (stereo not drawn), the Potency was inactive: > 76.9 µM.

With `COc1cc2c(=O)n(Cc3ccco3)c(=O)n(CC(=O)c3ccc(Br)cc3)c2cc1OC`, the Potency was inactive: > 76.9 µM.

For the compound `CCC(=O)N1CCN(c2ccccc2NC(=O)COc2ccccc2Cl)CC1`, the Potency is inactive: > 76.9 µM.

Turning to `O=C(NC1CCCCCC1)c1nc2ncccn2n1`, the Potency is inactive: > 76.9 µM.

Turning to `CCCCOC(=O)C1=C(C)Nc2nnnn2C1c1ccc(OC)c(OC)c1OC` (stereo not drawn), the Potency was inactive: > 76.9 µM.

Consider `Cc1n[nH]c(C)c1S(=O)(=O)N1CCCC(C(=O)N2CCN(c3ccc(Cl)cc3)CC2)C1` (stereo not drawn), for which the Potency was inactive: > 76.9 µM.

For the compound `CC(C)(C)c1ccc(OCC(=O)NCc2ccco2)cc1`, the Potency is inactive: > 76.9 µM.

In the case of `Cc1cc(N2CCN(C(=O)c3ccco3)CC2)n2nc(-c3cccc(F)c3)cc2n1`, the Potency was inactive: > 76.9 µM.

On to `C=CCn1c(SCC(=O)Nc2ccc(C(=O)OCC)cc2)nnc1-c1cccs1`, for which the Potency was inactive: > 76.9 µM.

Regarding `Cc1occc1C(=O)Nc1ccccc1NC(=O)c1ccoc1C`, the Potency was inactive: > 76.9 µM.

Regarding `CCOC(=O)c1cc2c(=O)n3cccc(C)c3nc2n(CCc2ccc(OC)c(OC)c2)c1=N`, the Potency was inactive: > 76.9 µM.

Regarding `COc1ccc(-c2ccc(-c3noc(C)n3)c(OC)n2)cc1`, the Potency was inactive: > 76.9 µM.

For the compound `O=C(CCc1nc2ccccc2c(=O)[nH]1)NC1CCN(Cc2ccccc2)CC1`, the Potency is inactive: > 76.9 µM.

With `Cc1cccc2sc(NC(=O)CCNS(=O)(=O)c3cccc4nonc34)nc12`, the Potency was inactive: > 76.9 µM.

`O=C(COc1ccc(S(=O)(=O)NCc2ccccc2)cc1Cl)N1CCOCC1`: the Potency entry was “inactive”.

For `Cc1cccc(Cn2cnc3c(nnn3Cc3ccc(Cl)cc3)c2=O)c1`, the Potency was inactive: > 76.9 µM.

Consider `CC(=O)c1cccc(NC(=O)N2C3CCC2CC(O)(c2cccnc2)C3)c1` (stereo not drawn), for which the Potency is inactive: > 76.9 µM.

As for `N#Cc1ccc(-c2ccco2)nc1SCc1ccccc1`, the Potency was inactive: > 76.9 µM.

`CCn1c(=O)n(CC(=O)Nc2cccc(OC)c2)c(=O)c2ccccc21`: the Potency result was “inactive”.
